According to PMC12301659:
These are yes or no findings as the source states them, for the method shown. Binding seen in cells or lysates may run through a third protein. Some entries that bind do so weakly or less than the wild type. Values belong to the substance of their own block, whether it stands above or below them.

Sequences of proteins named here, by UniProt entry; tags and fusion partners are left off. A change or cut given only in a name is not applied to a line headed by its entry.
UniProt P62258: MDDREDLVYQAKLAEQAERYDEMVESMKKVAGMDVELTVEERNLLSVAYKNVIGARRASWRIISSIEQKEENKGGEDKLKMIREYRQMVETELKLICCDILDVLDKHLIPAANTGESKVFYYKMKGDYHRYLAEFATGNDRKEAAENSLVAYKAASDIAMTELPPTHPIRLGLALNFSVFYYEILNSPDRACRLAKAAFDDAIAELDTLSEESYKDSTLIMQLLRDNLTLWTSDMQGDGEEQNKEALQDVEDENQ
UniProt Q14674: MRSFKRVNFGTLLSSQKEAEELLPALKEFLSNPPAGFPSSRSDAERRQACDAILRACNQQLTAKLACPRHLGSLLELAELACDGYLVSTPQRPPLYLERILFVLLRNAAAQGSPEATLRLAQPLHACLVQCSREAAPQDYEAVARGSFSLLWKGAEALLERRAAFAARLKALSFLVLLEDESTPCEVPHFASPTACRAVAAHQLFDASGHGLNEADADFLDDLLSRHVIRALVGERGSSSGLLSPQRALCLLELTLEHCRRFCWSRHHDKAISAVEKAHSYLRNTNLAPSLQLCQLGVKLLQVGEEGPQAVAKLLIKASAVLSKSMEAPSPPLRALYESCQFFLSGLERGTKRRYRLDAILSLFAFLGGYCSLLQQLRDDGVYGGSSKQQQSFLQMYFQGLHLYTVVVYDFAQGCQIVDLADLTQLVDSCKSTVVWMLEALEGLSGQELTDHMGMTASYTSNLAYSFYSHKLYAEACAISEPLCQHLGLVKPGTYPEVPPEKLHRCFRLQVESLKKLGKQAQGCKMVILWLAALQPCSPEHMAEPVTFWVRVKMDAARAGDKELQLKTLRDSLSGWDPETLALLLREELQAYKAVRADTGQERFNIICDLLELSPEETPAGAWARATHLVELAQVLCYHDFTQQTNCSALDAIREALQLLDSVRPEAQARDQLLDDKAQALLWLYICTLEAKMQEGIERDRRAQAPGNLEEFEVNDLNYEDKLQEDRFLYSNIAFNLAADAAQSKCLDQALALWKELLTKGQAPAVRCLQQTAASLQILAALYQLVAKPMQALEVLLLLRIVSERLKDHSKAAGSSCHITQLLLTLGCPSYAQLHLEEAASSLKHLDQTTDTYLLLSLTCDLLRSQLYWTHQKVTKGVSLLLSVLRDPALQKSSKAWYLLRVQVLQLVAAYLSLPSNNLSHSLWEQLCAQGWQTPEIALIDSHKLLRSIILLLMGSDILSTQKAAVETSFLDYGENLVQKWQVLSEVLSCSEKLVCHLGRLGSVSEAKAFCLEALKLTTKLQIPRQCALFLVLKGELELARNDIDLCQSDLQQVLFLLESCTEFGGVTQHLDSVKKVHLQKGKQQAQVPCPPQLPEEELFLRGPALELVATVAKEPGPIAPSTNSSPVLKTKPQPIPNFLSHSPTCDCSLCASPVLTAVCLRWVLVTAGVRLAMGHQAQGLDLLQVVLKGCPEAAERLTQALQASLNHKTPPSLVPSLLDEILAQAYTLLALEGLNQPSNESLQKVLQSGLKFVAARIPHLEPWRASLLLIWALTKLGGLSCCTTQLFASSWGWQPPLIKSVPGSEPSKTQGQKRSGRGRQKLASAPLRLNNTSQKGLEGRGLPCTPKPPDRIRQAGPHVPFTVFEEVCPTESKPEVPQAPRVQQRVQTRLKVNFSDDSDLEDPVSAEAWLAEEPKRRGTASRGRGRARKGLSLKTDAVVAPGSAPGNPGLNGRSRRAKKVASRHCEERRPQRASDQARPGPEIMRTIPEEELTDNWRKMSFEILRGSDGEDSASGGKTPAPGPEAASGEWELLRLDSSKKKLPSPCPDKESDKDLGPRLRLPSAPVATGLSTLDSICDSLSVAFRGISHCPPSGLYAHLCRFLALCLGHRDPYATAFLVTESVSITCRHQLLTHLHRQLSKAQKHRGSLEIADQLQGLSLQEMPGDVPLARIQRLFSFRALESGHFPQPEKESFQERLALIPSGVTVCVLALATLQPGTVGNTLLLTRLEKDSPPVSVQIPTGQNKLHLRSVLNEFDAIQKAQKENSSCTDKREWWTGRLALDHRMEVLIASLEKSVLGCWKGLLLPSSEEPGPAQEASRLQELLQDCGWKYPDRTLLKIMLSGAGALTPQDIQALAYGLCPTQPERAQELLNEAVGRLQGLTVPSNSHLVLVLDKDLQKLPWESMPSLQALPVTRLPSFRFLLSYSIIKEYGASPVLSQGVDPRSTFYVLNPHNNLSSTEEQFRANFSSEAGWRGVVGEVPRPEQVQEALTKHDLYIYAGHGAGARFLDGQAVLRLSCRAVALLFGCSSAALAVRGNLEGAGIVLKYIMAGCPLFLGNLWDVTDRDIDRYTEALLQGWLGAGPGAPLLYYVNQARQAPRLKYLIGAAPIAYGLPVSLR

Assays:
[1] = target: HA-tagged 14-3-3ε WT (UniProt P62258); assay: co-IP; HCT116 cells transfected with HA-tagged 14-3-3ε constructs (with Myc-tagged Plk1 constructs where named); lysates incubated 3 h at 4°C with anti-HA antibody (12CA5), protein G–Sepharose, washed with NET-N; western blot
[2] = target: HA-tagged 14-3-3ε WT (UniProt P62258); assay: proximity ligation; Duolink PLA in fixed HCT116 cells expressing HA-tagged 14-3-3ε WT, co-transfected with GFP–Centrin2 and Myc-tagged Plk1 constructs; antibodies against the HA and Myc epitopes; puncta per cell
[3] = target: HA-tagged 14-3-3ε E134A (UniProt P62258); assay: co-IP; HCT116 cells transfected with HA-tagged 14-3-3ε constructs (with Myc-tagged Plk1 constructs where named); lysates incubated 3 h at 4°C with anti-HA antibody (12CA5), protein G–Sepharose, washed with NET-N; western blot
[4] = target: HA-tagged 14-3-3ε D127A (UniProt P62258); assay: as above
[5] = target: 14-3-3ε (endogenous) (human (endogenous in HCT116)) (UniProt P62258); assay: co-IP; endogenous proteins, near-confluent HCT116 cells lysed in EBC buffer; antibody to 14-3-3ε, Plk1 or separase, or rabbit IgG; protein G–Sepharose; washed with NET-N; western blot
[6] = target: GST–14-3-3εK50E (UniProt P62258); assay: pull-down; GST or GST fusion proteins bound to glutathione beads incubated with HCT116 lysates (untransfected or transfected with Myc-tagged constructs) in EBC lysis buffer, 4–5 h at RT or 16 h at 4°C; washed three times with NET-N; western blot; only the target purified
[7] = target: GST–14-3-3ε E134A (UniProt P62258); assay: as above
[8] = target: GST–14-3-3ε (UniProt P62258); assay: as above
[9] = target: GST–14-3-3ε D127A (UniProt P62258); assay: as above
[10] = target: HA-tagged 14-3-3ε WT (UniProt P62258); assay: proximity ligation; Duolink PLA in fixed HCT116 cells stably expressing GFP–Centrin2 and transfected with HA-tagged 14-3-3ε constructs; antibodies against HA and Plk1 or HA and separase; puncta per cell
[11] = target: HA-tagged 14-3-3ε E134A (UniProt P62258); assay: as above
[12] = target: HA-tagged 14-3-3ε D127A (UniProt P62258); assay: as above
[13] = target: 14-3-3ε (endogenous) (human (endogenous in HCT116)) (UniProt P62258); assay: proximity ligation; Duolink PLA in fixed HCT116 cells with antibodies against endogenous 14-3-3ε and Plk1, separase or cdc25C; puncta per cell
[14] = target: separase [also known as separin (ESPL1)], endogenous (human (endogenous in HCT116)) (UniProt Q14674); assay: co-IP; endogenous proteins, near-confluent HCT116 cells lysed in EBC buffer; antibody to 14-3-3ε, Plk1 or separase, or rabbit IgG; protein G–Sepharose; washed with NET-N; western blot
[15] = target: polo-like kinase 1 (Plk1), endogenous (human (endogenous in HCT116)) (UniProt P53350); assay: as above

- binding [1]: binds
- binding [2]: binds
Substance: Myc-tagged Plk1 S99E (from UniProt P53350 1-603) (enzyme)

- binding [1]: binds
- binding [2]: binds
Substance: Myc-tagged Plk1 S99D (from UniProt P53350 1-603) (enzyme)

- binding [1]: binds
- binding [3]: binds
- binding [4]: binds
- binding [5]: binds
- binding [6]: no binding
- binding [7]: binds
- binding [8]: binds
- binding [9]: binds
- binding [10]: binds
- binding [11]: binds
- binding [12]: binds
- binding [13]: binds
Substance: polo-like kinase 1 (Plk1), endogenous (from UniProt P53350 1-603) (enzyme)

- binding [1]: no binding
- binding [2]: no binding
Substance: Myc-tagged Plk1 S99A (from UniProt P53350 1-603) (enzyme)

- binding [1]: binds
- binding [2]: binds
Substance: Myc-tagged Plk1 T210A (from UniProt P53350 1-603) (enzyme)

- binding [14]: binds
- binding [15]: binds
Substance: 14-3-3ε (endogenous) (from UniProt P62258 1-255)
